Reference: PubChem BioAssay AID624173 (National Center for Advancing Translational Sciences (NCATS), 2012)
Screen size: about 410,000 compounds; about 490 (0.12%) were called active. The inconclusive results got no clear call from the source; some entries with a clear call stand among them for comparison. Calls come from the whole dose curve; as a rule, active = well fitted inhibition curve with a large enough effect; inconclusive = small, poorly fitted or top-dose-only effect; inactive = flat fitted curve, though single readings scatter. Potencies beside an inconclusive call are fits to weak or partial responses and may not hold up.

biological target: pyruvate kinase (Trypanosoma brucei) (UniProt Q57TT1); assay: qHTS of Trypanosoma Brucei Inhibitors; conditions: TbPYK enzyme, Kinase-Glo Plus ATP luminescence, 45 min; series mostly up to 76.8 µM; note: nearly all actives have a fitted effect of over 50% in size
In short: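 In this concentration-response screen, enzyme-free wells defined baseline while DMSO plates tracked drift. Each reaction combined TbPYK, substrate, compound and 130 uM ADP for 45 min at room temperature. Kinase-Glo Plus luminescence gave the signal.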
Potency is the fitted concentration of half-maximal effect; tags give direction and shape of the fitted curve.

**Q.** For `CN1CCN(C(=S)Nc2ccc([N+](=O)[O-])cc2)CC1`, which Potency is on record?
**A.** inactive

**Q.** For `O=C(CN1CCN(S(=O)(=O)c2ccc(Br)cc2)CC1)c1ccc(O)c(O)c1`, which Potency is on record?
**A.** inconclusive: 39.8 µM [inhibitor, single point]

**Q.** How did the Potency turn out when `Cc1cc(-c2n[nH]c(=S)n2/N=C/c2cccc(O)c2)n[nH]1` was run?
**A.** inconclusive: 3.55 µM [inhibitor, full curve]

**Q.** Which Potency does the source give for `O=C(CN1CCN(c2ccc(O)cc2)CC1)NCC(=O)Nc1ccc(F)c(F)c1F` here?
**A.** inconclusive: 31.6 µM [inhibitor, single point]

**Q.** Which Potency does the source give for `COC(=O)c1ccc(-n2nnc(-c3nsc(NC(=O)c4ccc(Cl)cc4)n3)c2C)cc1` here?
**A.** inactive

**Q.** With `Cc1cc(-c2n[nH]c(=S)n2/N=C/C(Cl)=C/c2ccccc2)n[nH]1` as the compound, how does the Potency read?
**A.** inconclusive: 31.6 µM [inhibitor, partial curve, poor fit]

**Q.** Which Potency does the source give for `COc1ccc(C(=O)Oc2c(OC)cc(C(=S)N3CCOCC3)cc2OC)cc1OC` here?
**A.** inconclusive: 28.2 µM [inhibitor, partial curve, poor fit]

**Q.** Which Potency does the source give for `C=CCn1c(-c2cc3cccc(OC)c3o2)n[nH]c1=S` here?
**A.** inconclusive: 3.98 µM [inhibitor, partial curve, poor fit]

**Q.** Which Potency does the source give for `CC(=O)Nc1cccc(N=NN2CCOCC2)c1` here?
**A.** inactive

**Q.** How did the Potency turn out when `Cc1nc2sc(C(c3ccco3)N3CCN(c4cccc(Cl)c4)CC3)c(O)n2n1` (stereo unspecified) was run?
**A.** inconclusive: 35.5 µM [inhibitor, single point]

**Q.** How did the Potency turn out when `CCc1ccc(-c2csc3[n+]2CCN3C(C)=O)cc1` was run?
**A.** inconclusive: 35.5 µM [inhibitor, partial curve]

**Q.** With `Cc1ccc(OCC(=O)Nc2cc3nn(-c4ccccc4)nc3cc2C)cc1` as the compound, how does the Potency read?
**A.** inactive

**Q.** How did the Potency turn out when `Cc1ccc(Cl)cc1N1CCN(Cc2nc3c(c(=O)[nH]c(=O)n3C)n2Cc2ccccc2F)CC1` was run?
**A.** inactive

**Q.** `COc1cccc(-n2c(=O)c3ccccc3n3c(=S)[nH]nc23)c1` was tested. Which Potency did it give?
**A.** inconclusive: 5.62 µM [inhibitor, full curve, poor fit]

**Q.** `Cc1cccc(-n2c(-c3ccncc3)n[nH]c2=S)c1` was tested. Which Potency did it give?
**A.** inconclusive: 8.91 µM [inhibitor, partial curve, poor fit]

**Q.** How did the Potency turn out when `O=C(O)c1cc(=S)nc[nH]1` was run?
**A.** inconclusive: 28.2 µM [inhibitor, single point]

**Q.** For `CCOC(=O)NC1(Nc2ccc(C)cc2)Oc2ccccc2O1`, which Potency is on record?
**A.** inconclusive: 39.8 µM [inhibitor, single point]

**Q.** For `Cc1ccc(/C=C2/NC(=O)N(Cc3ccc(Br)cc3)C2=O)o1`, which Potency is on record?
**A.** inconclusive: 39.8 µM [inhibitor, single point]

**Q.** For `COc1ccc(F)cc1S(=O)(=O)NCC1CCCO1` (stereo unspecified), which Potency is on record?
**A.** inactive

**Q.** How did the Potency turn out when `Cc1ccc([N+](=O)[O-])c(-c2n[nH]c(=S)n2-c2cccc(Cl)c2)c1` was run?
**A.** active: 3.16 µM

**Q.** Which Potency does the source give for `O=C(O)CCc1ccc(-c2cccs2)n1NC(=O)c1ccc(Cl)cc1` here?
**A.** inactive

**Q.** `Cc1ccc2c(c1)sc(C)[n+]2CCCS(=O)(=O)[O-]` was tested. Which Potency did it give?
**A.** inconclusive: 4.47 µM [inhibitor, partial curve]

**Q.** How did the Potency turn out when `NC(=O)c1ccc(C(F)(F)F)n(Cc2ccc(F)c(F)c2)c1=O` was run?
**A.** inactive

**Q.** For `O=C1CCCC2=C1C(c1ccc(O)c(O)c1)c1c(ccc3ncccc13)N2` (stereo unspecified), which Potency is on record?
**A.** active: 17.8 µM

**Q.** How did the Potency turn out when `CCN(CC)c1ccc(NC(=O)c2cccc(C)c2OC)c(C)c1` was run?
**A.** inconclusive: 35.5 µM [inhibitor, partial curve]

**Q.** Which Potency does the source give for `O=C(Nc1ccc(N2CCCCCC2)cc1)c1ccc[nH]1` here?
**A.** inactive

**Q.** For `CC(C)(C)OC(=O)NNC1CC(=O)N(c2ccccc2F)C1=O` (stereo unspecified), which Potency is on record?
**A.** inactive

**Q.** For `Cc1cccc(CN2C(=O)N/C(=C/c3ccc(C)s3)C2=O)c1`, which Potency is on record?
**A.** inconclusive: 39.8 µM [inhibitor, partial curve, poor fit]

**Q.** Which Potency does the source give for `Cc1ccc(NC(=O)[C@@H](c2ccccc2)N2Cc3ccccc3C2=O)cc1` here?
**A.** inactive

**Q.** Which Potency does the source give for `COc1cc(/C=C(\C#N)c2nc3ccccc3o2)ccc1O` here?
**A.** inactive

**Q.** How did the Potency turn out when `CCOC(=O)Nc1ccc(S(=O)(=O)Nn2cnnc2)cc1` was run?
**A.** inactive

**Q.** Which Potency does the source give for `Cc1ccc2nc(-c3ccccc3)cn2c1` here?
**A.** active: 25.1 µM

**Q.** Which Potency does the source give for `CC1C(c2ccccc2)OCCN1C(=S)NC(=O)c1ccccc1` (stereo unspecified) here?
**A.** inconclusive: 25.1 µM [inhibitor, partial curve, poor fit]

**Q.** Which Potency does the source give for `COc1ccc(OC)c(NC(=O)/C=C/c2ccc(C)o2)c1` here?
**A.** inconclusive: 35.5 µM [inhibitor, partial curve, poor fit]

**Q.** For `Cc1ccccc1N(C(=O)Cc1c[nH]c2ccccc12)C(C(=O)NC1CCCCC1)c1ccco1` (stereo unspecified), which Potency is on record?
**A.** inconclusive: 0.891 µM [inhibitor, full curve, poor fit]

**Q.** How did the Potency turn out when `COc1ccc(/C=C2/C(=O)ON=C2c2ccccc2)cc1OC` was run?
**A.** inconclusive: 28.2 µM [inhibitor, single point]

**Q.** For `O=C(CCN1C(=O)/C(=C/c2ccccc2F)SC1=S)NCCc1ccc(O)cc1`, which Potency is on record?
**A.** inactive

**Q.** With `CC1CCN(CC(=O)Nc2cccc([N+](=O)[O-])c2)CC1` as the compound, how does the Potency read?
**A.** inactive

**Q.** `CCCOc1ccc(-c2nc(=S)[nH][nH]2)cc1` was tested. Which Potency did it give?
**A.** inconclusive: 11.2 µM [inhibitor, partial curve, poor fit]

**Q.** With `Cc1ccccc1N=C1NN=C(c2ccccc2F)CS1` as the compound, how does the Potency read?
**A.** inactive

**Q.** How did the Potency turn out when `Cc1ccccc1N1C(=O)NC(=O)/C(=C\c2cnn(-c3ccccc3)c2)C1=O` was run?
**A.** inconclusive: 50.1 µM [inhibitor, single point]

**Q.** With `CCC(=O)NC(c1ccc(C)cc1)c1cc([N+](=O)[O-])c2cccnc2c1O` (stereo unspecified) as the compound, how does the Potency read?
**A.** inconclusive: 3.16 µM [inhibitor, full curve]

**Q.** With `Cc1ccc(N2C(=O)NC(=O)/C(=C/c3ccc(-c4ccc(C(=O)O)c(Cl)c4)o3)C2=O)cc1` as the compound, how does the Potency read?
**A.** inconclusive: 12.6 µM [inhibitor, partial curve, poor fit]

**Q.** Which Potency does the source give for `Cc1ccc(/C=C/C(=O)N2CCN(S(=O)(=O)c3ccc(C)c(C)c3)CC2)o1` here?
**A.** active: 14.1 µM

**Q.** How did the Potency turn out when `COc1ccc(N2C(=O)/C(=C/N(C)C)NC2=S)cc1` was run?
**A.** inconclusive: 12.6 µM [inhibitor, partial curve]

**Q.** How did the Potency turn out when `CC1CCC(C(C)C)C(OC(=O)C[n+]2cccc(C(N)=O)c2)C1` (stereo unspecified) was run?
**A.** inconclusive: 35.5 µM [inhibitor, single point]

**Q.** For `COc1ccc(NC(=O)c2c(NCc3sccc3C)sc3c2CCCCC3)c(OC)c1`, which Potency is on record?
**A.** inconclusive: 35.5 µM [inhibitor, partial curve, poor fit]

**Q.** `Fc1cccc(Cc2c(-c3ccco3)nc3ccc(Cl)cn23)c1` was tested. Which Potency did it give?
**A.** inconclusive: 20 µM [inhibitor, partial curve, poor fit]

**Q.** `C(#Cc1ccccc1)CN1CCCCC1` was tested. Which Potency did it give?
**A.** inactive

**Q.** How did the Potency turn out when `CC(C)C(c1nnnn1C(C)(C)C)N1CCN(c2cccc(Cl)c2)CC1` (stereo unspecified) was run?
**A.** inconclusive: 50.1 µM [inhibitor, single point]

**Q.** Which Potency does the source give for `CC1(C)CC(=O)C(C=NCCN2CCN(C3CC(=O)N(c4ccc(F)cc4)C3=O)CC2)=C(O)C1` (stereo unspecified) here?
**A.** inconclusive: 39.8 µM [inhibitor, single point]

**Q.** `COc1ccc(CC(=O)NCc2n[nH]c(=S)n2-c2cccc(C)c2)cc1` was tested. Which Potency did it give?
**A.** inconclusive: 11.2 µM [inhibitor, partial curve]

**Q.** For `Cc1ccc(-c2cc(-c3ccc(F)cc3)c(C#N)c(N)n2)o1`, which Potency is on record?
**A.** inconclusive: 39.8 µM [inhibitor, single point]

**Q.** With `Cc1ccc(C)c(NC(=O)CN(C)C(=O)CSC(C)C(=O)Nc2cc(C)on2)c1` (stereo unspecified) as the compound, how does the Potency read?
**A.** inconclusive: 50.1 µM [inhibitor, single point]

**Q.** For `CC1(C)CC(NC(=O)c2ccc3c(c2)OCO3)CC(C)(C)N1`, which Potency is on record?
**A.** inactive

**Q.** For `O=C1c2ccccc2C(=O)N1SC1CCCCC1`, which Potency is on record?
**A.** inconclusive: 35.5 µM [inhibitor, single point]

**Q.** `O=C(NC1CC1)C1CC(=O)N(c2cccc(Cl)c2)C1` (stereo unspecified) was tested. Which Potency did it give?
**A.** inactive

**Q.** With `COc1cccc2c(=S)c(CCC(C)=O)c(C)[nH]c12` as the compound, how does the Potency read?
**A.** inconclusive: 2.24 µM [inhibitor, full curve, poor fit]

**Q.** With `O=C1NC(=S)NC(=O)C1=Cc1cccc2cc3ccccc3cc12` as the compound, how does the Potency read?
**A.** inconclusive: 25.1 µM [inhibitor, single point]

**Q.** How did the Potency turn out when `Fc1ccc(-c2n[nH]c(=S)n2Cc2ccccc2)cc1` was run?
**A.** inconclusive: 2.24 µM [inhibitor, full curve, poor fit]

**Q.** For `CCOc1ccc(C=C2C(=O)NC(=S)NC2=O)cc1OCC`, which Potency is on record?
**A.** inconclusive: 14.1 µM [inhibitor, partial curve]

**Q.** With `CCOC(=O)c1ccc(NC2SC(=O)N(Cc3cccc(C(=O)O)c3)C2=O)cc1` (stereo unspecified) as the compound, how does the Potency read?
**A.** inconclusive: 28.2 µM [inhibitor, partial curve, poor fit]

**Q.** For `Cn1cnc2c(=O)oc3ccc(S(=O)(=O)Nc4ccc(F)cc4)cc3c21`, which Potency is on record?
**A.** inactive

**Q.** Which Potency does the source give for `OC(c1ccccn1)c1c[nH]c2ccccc12` (stereo unspecified) here?
**A.** inactive

**Q.** With `CC(=O)Nc1ccc(S(=O)(=O)Oc2cccc(/C=C3\SC(N)=NC3=O)c2)cc1` as the compound, how does the Potency read?
**A.** inconclusive: 50.1 µM [inhibitor, single point]

**Q.** Which Potency does the source give for `O=C(O)c1cccc(N2C(=O)/C(=C/c3ccc(SCc4ccc(Cl)cc4)o3)SC2=S)c1` here?
**A.** inconclusive: 25.1 µM [inhibitor, single point]

**Q.** With `COc1ccc(/C=C2/C(=O)NC(=O)N(c3ccccc3)C2=O)cc1CN1C(=O)c2ccccc2C1=O` as the compound, how does the Potency read?
**A.** inconclusive: 35.5 µM [inhibitor, single point]

**Q.** `CC1CN(C(=S)NC(=O)c2cccc([N+](=O)[O-])c2)CC(C)O1` (stereo unspecified) was tested. Which Potency did it give?
**A.** inconclusive: 31.6 µM [inhibitor, partial curve, poor fit]

**Q.** For `Cc1cc(Br)c2nc(-c3ccccc3)c(Cc3cccc(Cl)c3)n2c1`, which Potency is on record?
**A.** inactive

**Q.** How did the Potency turn out when `Cc1cccnc1NC(=O)CCCc1c[nH]c2ccccc12` was run?
**A.** inactive

**Q.** With `CCc1n[nH]c(=S)n1/N=C/c1ccc2c(c1)OCO2` as the compound, how does the Potency read?
**A.** inconclusive: 12.6 µM [inhibitor, partial curve]
